Among the data in PubChem BioAssay (NCI) are GI50 and TGI values, retold here.

The test system of the assay is NCI-H322M lung. Put plainly: NCI anticancer screen, dose series, 48 h.

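In this assay, cells in 96-well plates receive the compound at five concentrations for 48 hours. Endpoints are linearly interpolated between the surrounding concentrations. The concentration for 50% growth inhibition is given as GI50. TGI: concentration producing complete growth inhibition.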

Take `COc1ccc(-c2nc(S(=O)(=O)c3ccc(C)cc3)c(S(C)(=O)=O)o2)cc1`: the GI50 was 14.8 µM and the TGI stood at 28 µM.

Take `Nc1cc(-c2c[nH]c3ccc(Cl)cc23)nc2cc(-c3c[nH]c4ccccc34)nn12`: the GI50 was 3.28 µM and the TGI is 13.4 µM.
